55 molecules from PubChem BioAssay AID463173 (ICCB-Longwood Screening Facility, Harvard Medical School, 2010) can be followed below.

Among all 52,000 compounds or so, about 1,700 (3.3%) were called active. Rule as the data show it: active = survival mostly below about 52% (no sharp cut-off); inactive = mostly above about 56%. This is one part of the list.

This assay relates to Wild type. The experiment in a line: S. aureus survival, RN4220 and DeltatarO strains – OD600, teichoic acid synthesis inhibitors, primary screen (AID 463173). The conditions noted are these: S. aureus RN4220 wild type/DeltatarO growth, OD600, 18 h, active compounds read low, screened at 18.75 µg/mL (by protocol).
Consider `COc1ccc(N2CCN(CCCNC(=O)c3cc(Nc4ccc(OC)cc4OC)nc4ccccc34)CC2)cc1`, for which the survival was inactive: 72%.

As for `CCCN1Cc2cccc(C(=O)Nc3ccc(C(C)=O)cc3)c2C1=O`, the survival is inactive: 89%.

With `Cc1cccc(-n2c(=O)c3c(c4cc(C)ccc4n3C)n(CC(=O)N3CCCC3)c2=O)c1`, the survival is inactive: 120%.

`COc1cccc(C(=O)c2c(N)c(-c3nc(-c4ccccc4)cs3)c3ccccn23)c1`: the survival is inactive: 98%.

On to `Cc1cc(C)nc(SCC(=O)Nc2ccc(N3CCOCC3)cc2)n1`, for which the survival is inactive: 108%.

On to `CCOc1ccc(N(CC)S(=O)(=O)N2CCCC(C(=O)Nc3ccc(C(C)=O)cc3)C2)cc1` (stereo not given), for which the survival was inactive: 94%.

Take `N#CC(C#N)C(CC(=O)c1cccs1)c1ccccc1` (stereo not given): the survival was inactive: 108%.

For the molecule `O=C(CN1C(=O)COc2ccccc21)NCCc1ccc(Cl)cc1`, the survival is inactive: 73%.

`CCc1ccc(-n2c(=O)c3c4c(sc3n(CC(=O)N3CCCCC3CC)c2=O)CCC4)cc1` (stereo not given): the survival was inactive: 68%.

`CCNC(=S)N1CCC(C(=O)c2ccc3c(c2)OCCO3)CC1`: the survival was inactive: 97%.

In the case of `O=C(NC1CC2CCC(C1)N2Cc1nnnn1Cc1ccco1)NC12CC3CC(CC(C3)C1)C2` (stereo not given), the survival was inactive: 108%.

`Cc1c(C(=O)Nc2cccc(Cl)c2)sc2nc3n(c(=O)c12)N=C(c1cccc(Br)c1)CS3`: the survival was inactive: 72%.

For the molecule `Cc1ccc(NC(=O)Cn2c(=O)n(Cc3nc(C)no3)c(=O)c3ccccc32)c(Cl)c1`, the survival was inactive: 78%.

Take `Cc1cccc(C)c1OCCCn1c(CCNC(=O)C2CCCCC2)nc2ccccc21`: the survival was active: 28%.

Consider `Cc1c(CCC(=O)NCCc2ccc(Cl)cc2)c(=O)oc2c(C)c(O)ccc12`, for which the survival is inactive: 93%.

For `CCOc1ccccc1NC(=O)c1nc(SC(C)C)ncc1Cl`, the survival was inactive: 117%.

Regarding `CCc1ccc(NC(=O)CN2C(=O)C(c3ccc(Cl)cc3)=NC23CCCCC3)cc1`, the survival is inactive: 81%.

Take `Cc1c(CNC2CCCCC2)c(C(=O)O)c(C)n1Cc1cccc(Cl)c1`: the survival is inactive: 89%.

In the case of `COc1ccc(CNC(=O)c2ccc(N3CCCC3)c(NC(=O)NCc3ccc(C)cc3)c2)cc1`, the survival is inactive: 75%.

On to `Cc1nn2c(-c3cccc(NC(=O)c4ccccc4)c3)nnc2c2ccccc12`, for which the survival is inactive: 85%.

`COc1ccc(-c2cn3c(n2)sc2cc(C(=O)Nc4ccc(C)c(C)c4)ccc23)cc1`: the survival is inactive: 86%.

As to `Cc1cccc(N2CCN(C(=O)CCc3nnc4n(CC(C)C)c(=O)c5ccccc5n34)CC2)c1C`, the survival is inactive: 86%.

Turning to `COc1ccc(-c2cc(C)no2)cc1S(=O)(=O)N1CCOc2ccccc21`, the survival was inactive: 80%.

For `CC(C)N(C=O)C1(C(=O)NC2CCCCC2)CCCCC1`, the survival is inactive: 103%.

Regarding `O=C(Cc1ccccc1)N(Cc1cccnc1)c1nc2c(F)cc(F)cc2s1`, the survival is inactive: 65%.

On to `CCc1ccccc1NC(=O)CN(Cc1ccccc1)S(=O)(=O)c1ccc(Br)cc1`, for which the survival is inactive: 66%.

As for `O=C(Nc1cc(Cl)cc(Cl)c1)c1ccc(F)c(S(=O)(=O)N2CCc3ccccc32)c1`, the survival was inactive: 83%.

For `Cc1cccc(OC(=O)CSc2nnc(CNC(=O)c3ccccc3)o2)c1C`, the survival was inactive: 87%.

In the case of `O=C(Nc1ccc(F)cc1)c1oc2ccccc2c1NC(=O)C12CC3CC(CC(C3)C1)C2`, the survival is inactive: 80%.

On to `CCOC(=O)c1c(C)oc2ccc(N(C(=O)Oc3ccccc3)S(=O)(=O)c3ccc(CC)cc3)cc12`, for which the survival is inactive: 74%.

Take `CC(C)c1ccc(OCC(=O)NC(Cc2c[nH]c3ccccc23)C(=O)O)cc1` (stereo not given): the survival is inactive: 63%.

`CCOC(=O)c1c(C)[nH]c(C)c1S(=O)(=O)N1CCC(C(=O)N2CCN(c3ccccc3F)CC2)CC1`: the survival is inactive: 68%.

In the case of `COc1cccc(NC(=O)CSC2=Nc3ccccc3C3=NC(CC(=O)NC4CCCCC4)C(=O)N23)c1` (stereo not given), the survival is inactive: 80%.

For the molecule `CCn1cnc2sc3c(c2c1=O)CCCC3`, the survival was inactive: 107%.

In the case of `CCc1nnc(SCc2cc(C)ccc2C)c2cc3sc(C)cc3n12`, the survival is inactive: 78%.

For `COc1ccc(NC(=O)C(C)n2nc(-c3ccc(C)c(C)c3)ccc2=O)cc1OC` (stereo not given), the survival is inactive: 99%.

As for `COc1ccc(C2CC(=O)c3cc(-c4nc(-c5ccc(Cl)cc5)c(C)s4)c(=O)[nH]c3C2)cc1` (stereo not given), the survival was inactive: 71%.

For `Cc1ccc2c(c1)-c1cc(C)nn1C(c1cc(Br)ccc1O)N2` (stereo not given), the survival was inactive: 131%.

Consider `COc1cc(OC)c(OC)cc1/C=C/c1nc2cc3ccccc3cc2c(=O)n1-c1ccc(F)cc1F`, for which the survival is inactive: 78%.

`Cc1ccc(-n2c(SCc3cccc(F)c3)nc3[nH]ncc3c2=O)cc1C`: the survival is inactive: 89%.

Take `COC(=O)c1ccc2c(=O)n(CCCCCC(=O)NCc3ccc(Cl)cc3)c(=O)[nH]c2c1`: the survival is inactive: 91%.

Regarding `CCOC(=O)c1nn(-c2ccccc2)c(=O)c(C#N)c1C`, the survival is inactive: 97%.

In the case of `Cc1ccc2ncc(C(=O)Nc3ccc(F)cc3F)c(=O)n2c1`, the survival is inactive: 89%.

For `O=S(=O)(Nc1nc2n(n1)C(c1ccc(F)cc1)C=C(c1ccccc1)N2)c1ccccc1` (stereo not given), the survival is inactive: 74%.

For the molecule `Cc1cc(NC(=O)CCS(=O)(=O)c2cc3c4c(c2)CCN4C(=O)CC3)ccc1Br`, the survival is inactive: 128%.

For `CC(C)(C)c1ccc(C(=O)NCC(c2cccs2)S(=O)(=O)c2ccccc2)cc1` (stereo not given), the survival is inactive: 119%.

For the molecule `CC(=O)c1ccc(N2CCN(c3ccc(NC(=O)c4ccc(F)cc4)cc3C(=O)O)CC2)cc1`, the survival is active: 14%.

On to `CCc1ccc(CNC(=O)c2ccc(NC(=O)N3CC(C)Sc4ccccc43)cc2)cc1` (stereo not given), for which the survival is inactive: 91%.

Consider `Cc1cc(C)c2c(=O)cc(C(=O)Nc3ccccc3C(F)(F)F)oc2c1`, for which the survival was inactive: 91%.

As for `CCOC(=O)c1c(-c2ccc(Br)cc2)csc1NC(=O)c1ccc(F)cc1`, the survival was inactive: 72%.

In the case of `CN(Cc1ccccc1)S(=O)(=O)c1ccc(NC(=O)c2ccco2)cc1`, the survival is inactive: 101%.

`COC(=O)c1ccccc1NC(=O)CSc1nc2ccccc2nc1Cc1ccccc1OC`: the survival was inactive: 113%.

Regarding `CC(C)OCCCNC(=O)c1ccc2c(c1)NC(=O)c1ccccc1S2`, the survival is inactive: 87%.

For `O=C(Nc1cc(-c2nc3ccccc3o2)ccc1Cl)c1ccc(N2CCCCC2)c([N+](=O)[O-])c1`, the survival is inactive: 78%.

For `CN(C(=O)c1cc2nc(-c3ccco3)cc(C(F)(F)F)n2n1)c1ccc(OC(F)(F)Cl)cc1`, the survival was inactive: 132%.
